Data as given in PubChem BioAssay AID1963576 (National Center for Advancing Translational Sciences (NCATS), 2024).
The whole screen tested about 46,000 compounds, of which about 60 (0.1%) were called active. Inconclusive results (about 3%) are left out. The call rests on the fitted dose curve; in most records, active means well fitted inhibition curve with a large enough effect; inconclusive means small, poorly fitted or top-dose-only effect; inactive means no such curve, though single readings can be large or run the other way. The list shows a part of the results.

experiment: Primary qHTS assay for Inhibitors of ovarian cancer metastasis using an organotypic tumor microenvironment (TME) model.; further: nearly all actives have a fitted effect of over 65% in size;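 on activity change, negative = inhibition: plate controls were DMSO wells for no effect and tomatine positive control wells for full effect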; details: SKOV3ip1-GFP adhesion/invasion on 3D omental model, fluorescence; series mostly up to 45.8 µM; activity change, negative = inhibition: at the top concentration
In short: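 qHTS, 4-pt dose (0.36-46 umol/L); SKOV3ip1-GFP, 1,200 cells/well, no FBS; primary omental fibroblast/mesothelial co-culture 48 h pre-grown; 2 h RT + 16 h 37 C; PBS wash, 4% PFA; GFP count 488/509 nm.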

Structure (SMILES) | outcome | activity change, negative = inhibition
CN(C1CCCCC1)S(=O)(=O)c1ccc(C(=O)Nc2sc3c(c2C(N)=O)CC(C)(C)NC3(C)C)cc1 | inactive | –
CCc1nc(-c2cc(S(=O)(=O)N3CCN(c4ccc(F)cc4)CC3)ccc2OC)no1 | – | inactive: -5.98%
COc1ccc(N2CCN(C(=O)CSCc3nc(-c4ccccc4Cl)oc3C)CC2)cc1 | – | inactive: -1.23%
CC(=O)c1cc(-c2ccccc2)n(CC(=O)NC2CCCCCC2)c1C | inactive | –
O=C(Nc1cccc(C(F)(F)F)c1)c1noc2c1CCc1ccccc1-2 | – | inactive: -13.1%
Cn1c(=O)c(=O)n(C)c2cc(S(=O)(=O)N3CCN(c4ccccc4F)CC3)ccc21 | inactive | –
O=C(NCc1cccc(F)c1)c1ccc(CS(=O)c2ccccc2Cl)o1 (stereo not given) | – | inactive: -4.89%
CCOC(=O)N1CCc2c(sc3c2c(=O)n(Cc2ccccc2)c(=O)n3CC(=O)Nc2c(C)cccc2C)C1 | – | inactive: -5.49%
COc1ccccc1NC(=O)CCN1CCC(C(N)=O)CC1 | – | inactive: 21.2%
CCc1ccc(-n2c(=O)c3cccnc3n2CC(=O)NCc2ccc(F)cc2)cc1 | – | inactive: -5.03%
CNC(=O)c1ccc(Nc2nnc(-c3ccc(C)c(S(=O)(=O)NC(C)(C)C)c3)c3ccccc23)cc1 | inactive | –
Cc1ccc(C(=O)Nc2ccc(-n3c(C)nc4ccccc4c3=O)cc2)cc1[N+](=O)[O-] | – | inactive: -30.4%
Cc1cccc(C)c1OCC(=O)Nc1nonc1-c1ccc(Br)cc1 | – | inactive: 3.34%
COc1ccc(CCNC(=O)Cc2c(C)c3cc(OC)c(OC)cc3oc2=O)cc1 | inactive | –
O=C(NCC12CC3CC(CC(C3)C1)C2)c1cc2nc(-c3ccc(Cl)cc3)cc(C(F)(F)F)n2n1 | inactive | –
COc1ccc(OC)c(NC(=O)Cn2c(=O)oc3cc(S(=O)(=O)NCc4ccccc4)ccc32)c1 | inactive | –
CCN(C(=O)c1cc2c(s1)-c1c(C)cccc1OC2)c1cc(C)ccc1C | – | inactive: 2.52%
CCOc1ccc2oc(=O)cc(CN3CCN(c4ccc(OC)cc4)CC3)c2c1 | inactive | –
CCN(C(=O)CCS(=O)(=O)c1cccc2nsnc12)c1cccc(C)c1 | – | inactive: -21.9%
CCOC(=O)c1ccc(N2C(=O)c3n[nH]c(-c4cccs4)c3C2c2ccc(O)c(OC)c2)cc1 (stereo not given) | inactive | –

Structure (SMILES) | outcome | activity change, negative = inhibition
O=C(Nc1nc2n(n1)C(c1ccc(F)cc1)C=C(c1ccc(Cl)cc1)N2)c1ccco1 (stereo not given) | – | inactive: -7.13%
COc1ccc(-n2c(=O)c3ccccc3n(Cc3ccc(F)cc3Cl)c2=O)cc1OC | – | inactive: 29.7%
Cc1cc(S(=O)(=O)Nc2cc3c(cc2N2CCOCC2)n(C)c(=O)n3C)ccc1F | – | inactive: 0.551%
COc1ccc(NC(=O)C(CC(C)C)NC(=O)C2CCCCC2)c(OC)c1 (stereo not given) | – | inactive: -3.57%
CCc1nc2ccc(C(=O)NCCc3ccc(SC)cc3)cc2nc1CC | inactive | –
Clc1cccc(-c2nnc(CN3CCN(c4ccccn4)CC3)o2)c1 | inactive | –
COc1ccc(C2CC(=O)c3cc(-c4nc(-c5ccc(Cl)cc5)cs4)c(=O)[nH]c3C2)cc1 (stereo not given) | – | inactive: 10.2%
CC(=O)Nc1nonc1-c1nnc(SCC(=O)Nc2ccccc2Cl)n1C | – | inactive: 7.91%
COc1cc(NC(=O)c2cc(-c3ccccc3O)no2)cc(OC)c1OC | – | inactive: -37%
CCOc1ccc(CNC(=O)C2CCN(C3=NS(=O)(=O)C(c4ccc(C)cc4)=C3CC)CC2)cc1 | – | inactive: -6.32%
CCN(CC)S(=O)(=O)c1ccc2c(c1)N(CC(=O)N1CCN(c3cc(Cl)ccc3C)CC1)C(=O)CO2 | – | inactive: -1.23%
CCc1ccccc1N1CC(c2nnc(NC(=O)c3ccco3)s2)CC1=O (stereo not given) | – | inactive: 7.66%
Cc1cccc(N2CCN(c3nc4ccccc4c4nc(-c5ccccc5)nn34)CC2)c1C | – | inactive: -0.114%
CC(=O)OCc1cnc(C)c2oc(=O)c(C(=O)Nc3ccc(F)cc3C)cc12 | inactive | –
COc1ccc(NC(=O)C2CCN(C(=O)c3sc4nc[nH]c(=O)c4c3C)CC2)c(OC)c1 | inactive | –
COc1cc(NC(=O)CCCSc2nc(-c3ccco3)cc(C(F)(F)F)n2)cc(OC)c1OC | – | inactive: -9.12%
COc1ccc2c(C)cc(SCC(=O)Nc3nsc(-c4ccc(C(C)(C)C)cc4)n3)nc2c1 | inactive | –
COc1cccc(Cn2c(SCc3ccc(C(=O)N4CCC(C)CC4)cc3)nc3ccncc32)c1 | – | inactive: -2.77%
CCC(Cc1ccccc1)NC(=O)c1csc2c1CCCCC2 (stereo not given) | inactive | –
CCN(c1ccccc1)S(=O)(=O)c1cc(C(=O)Nc2ccc(Br)cc2)ccc1F | – | inactive: -43.3%

Structure (SMILES) | outcome | activity change, negative = inhibition
O=C(Cn1c(=O)oc2ccccc21)NCc1ccc(Cl)cc1 | – | inactive: 17.4%
CCOC(=O)c1c(Nc2ccccc2)nnc(-c2ccccc2)c1-c1ccccc1 | – | inactive: -10.4%
COc1ccccc1NC(=O)C1=C(C)Nc2ncnn2C1c1ccc[nH]1 (stereo not given) | inactive | –
CCN(CC)C(=O)Cn1c(SCC(=O)Nc2ccc(C)c(C)c2)nc2ccccc21 | – | inactive: -2.1%
COc1ccc(CNC(=O)CN2CCSc3ccccc32)c(OC)c1 | inactive | –
COc1ccc2oc(-c3ccc(C)c(NC(=O)c4ccc(N5CCCCC5)c([N+](=O)[O-])c4)c3)nc2c1 | – | inactive: -9.54%
Cc1ccc(NC(=O)CN2C(=O)C(c3ccccc3)=NC2(C)C)cc1C | – | inactive: -5.1%
COc1cccc(C(=O)Nc2ccc3c(c2)CCCN3C(=O)c2cccs2)c1OC | – | inactive: 17.4%
Cc1ccccc1C(=O)Nc1ccccc1C(=O)OCc1cc(=O)n2nc(C3CC3)sc2n1 | – | inactive: 1.11%
CN1CCN(c2ncc3c(n2)CCN(Cc2ccccc2Cl)C3)CC1 | – | inactive: 4.87%
Cc1cc2oc(C(=O)N(Cc3ccccc3)C3CCS(=O)(=O)C3)cc(=O)c2cc1C (stereo not given) | – | inactive: 0.424%
CCOc1ccc(S(=O)(=O)n2nc(C)c(S(=O)(=O)N3CCCCCC3)c2C)cc1 | inactive | –
Cc1ccc(-n2ncc3c(NCCc4ccccc4)ncnc32)cc1 | inactive | –
CCOc1ccc(Nc2c(S(=O)(=O)c3ccc(C)cc3)cnc3ccccc23)cc1 | – | inactive: -20.7%
Cc1c2cnn(-c3ccccc3)c(=O)c2c(C)n1CC(=O)NCc1ccc(Cl)cc1 | inactive | –
CCc1ccc(NC(=O)CSc2nnc(-c3nonc3NC(C)=O)n2-c2ccccc2)cc1 | – | inactive: -2.07%
Cc1cc(-c2nc3ncccc3o2)ccc1NC(=O)COc1ccc(C(C)(C)C)cc1 | – | inactive: 1.23%
Cc1ccc(S(=O)(=O)OCC(=O)Nc2ccc(C(=O)O)c(O)c2)cc1 | – | inactive: 12.6%
Cc1c(CCNC(=O)c2ccc(C(F)(F)F)cc2)sc2nc(-c3ccc(F)cc3)nn12 | – | inactive: 7.46%
COc1ccc(-c2cc(C)no2)cc1S(=O)(=O)Nc1cccc(C(F)(F)F)c1 | – | inactive: -0.409%
